These results are taken from paper PMC4336329 (PLoS ONE, 2015).

Among all 310,000 compounds or so, about 2,200 (0.71%) showed an effect of 50% or more. Effects have a minus sign here. Some of the results follow.

human ether-à-go-go-related gene (hERG) potassium channel, sequence (Q12809 whole entry, looked up): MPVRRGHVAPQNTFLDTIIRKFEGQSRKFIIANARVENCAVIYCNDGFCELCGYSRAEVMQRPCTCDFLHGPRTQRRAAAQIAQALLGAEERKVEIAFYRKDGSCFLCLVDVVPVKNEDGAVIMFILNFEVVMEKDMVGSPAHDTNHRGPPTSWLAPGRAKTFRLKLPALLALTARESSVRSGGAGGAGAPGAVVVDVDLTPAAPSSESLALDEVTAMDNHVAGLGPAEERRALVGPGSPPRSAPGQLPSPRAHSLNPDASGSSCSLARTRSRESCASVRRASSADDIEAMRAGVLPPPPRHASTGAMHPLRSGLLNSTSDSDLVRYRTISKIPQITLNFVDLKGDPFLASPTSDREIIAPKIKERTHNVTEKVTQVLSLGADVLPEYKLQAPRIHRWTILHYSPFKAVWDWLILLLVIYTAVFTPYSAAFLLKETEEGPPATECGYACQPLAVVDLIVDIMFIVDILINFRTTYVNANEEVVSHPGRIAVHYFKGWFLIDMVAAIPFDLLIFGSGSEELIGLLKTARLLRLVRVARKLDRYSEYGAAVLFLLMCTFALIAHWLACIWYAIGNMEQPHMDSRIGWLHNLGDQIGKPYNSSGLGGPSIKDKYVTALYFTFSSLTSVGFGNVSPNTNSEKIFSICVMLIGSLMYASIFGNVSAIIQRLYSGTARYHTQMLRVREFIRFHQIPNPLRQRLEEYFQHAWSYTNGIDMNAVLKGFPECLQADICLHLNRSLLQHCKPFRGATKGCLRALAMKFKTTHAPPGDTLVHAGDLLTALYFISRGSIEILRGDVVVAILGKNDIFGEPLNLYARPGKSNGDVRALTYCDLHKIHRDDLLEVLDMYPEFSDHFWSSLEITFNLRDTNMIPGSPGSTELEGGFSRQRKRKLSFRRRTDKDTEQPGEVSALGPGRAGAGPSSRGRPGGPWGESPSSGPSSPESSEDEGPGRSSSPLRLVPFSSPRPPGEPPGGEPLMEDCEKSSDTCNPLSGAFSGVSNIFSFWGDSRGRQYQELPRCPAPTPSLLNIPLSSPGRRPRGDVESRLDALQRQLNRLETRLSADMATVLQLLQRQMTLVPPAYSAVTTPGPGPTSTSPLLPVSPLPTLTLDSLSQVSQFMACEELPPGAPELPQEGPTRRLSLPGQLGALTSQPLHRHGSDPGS

The assay has as its target human ether-à-go-go-related gene (hERG) potassium channel (human, UniProt Q12809). The assay is described as follows: primary screen, population patch clamp on CHO cells stably expressing hERG.
Regarding `CCOC(=O)N1CCN(C(=O)c2c(N)no[n+]2[O-])CC1`, the “hERG current change (%, negative = inhibition) at 1uM” value was determined as 10.5%.

Turning to `COc1ccc(NC(=S)Nc2cc(S(=O)(=O)N3CCCCC3)ccc2OC)cc1`, the “hERG current change (%, negative = inhibition) at 1uM” value came to 2.47%.

As for `Cc1ccc(C(=O)NCC(C)NC(=O)c2ccc(C)c(C)c2)cc1C` (stereo not drawn), the “hERG current change (%, negative = inhibition) at 1uM” value was 14.6%.

Regarding `COc1ccccc1N(CC(=O)NCCSc1ccccn1)S(=O)(=O)c1ccccc1`, the “hERG current change (%, negative = inhibition) at 1uM” value came to 12.2%. Turning to `CC(=O)C1(c2ccccc2)CCN(C(=O)C2CCC(=O)N(CCc3cccc(F)c3)C2)CC1` (stereo not drawn), the “hERG current change (%, negative = inhibition) at 1uM” value is given as -11.6%. The result for `CCN(c1cccc(C)c1)S(=O)(=O)c1cc2c3c(c1)CCN3C(=O)CC2` reads 0.792%; that for `CC(=O)Nc1ccc(-c2csc(Nc3ccccn3)n2)cc1`, 11.1%. The value for `Cc1cn(Cc2ccccc2)c(=O)[nH]c1=O` was 6.13%; that for `Cc1ccc(S(=O)(=O)N2CCN(C(=O)COC(=O)c3ccc(Cl)nc3)CC2)c(C)c1` was 9.05%.

Take `COc1ccc(S(=O)(=O)N2CC3CCCN3c3ccc(C(F)(F)F)cc32)cc1` (stereo not drawn): the “hERG current change (%, negative = inhibition) at 1uM” value is on record as 7.48%.

As to `CCc1ccc(S(=O)(=O)NCc2csc(-c3ccccc3)n2)s1`, the “hERG current change (%, negative = inhibition) at 1uM” value stood at 6.81%. The result for `O=C(CC1CCCCC1)Nc1ccc(-c2ccc3nncn3n2)cc1` reads 16.6%; that for `COC(=O)c1c(NC(=O)COC(=O)c2ccc(O)cc2)sc2c1CCCCC2`, 3.2%. On to `O=c1cc(CSc2ccc(Cl)cc2)nc(-c2ccccn2)[nH]1`, for which the “hERG current change (%, negative = inhibition) at 1uM” value was 15.4%. The value for `CCCC(=O)Nc1sc(C)c(C)c1C#N` was 6.12%. The result for `O=C(NCCCn1ccnc1)c1ccc(Br)c(S(=O)(=O)N2CCOCC2)c1` reads 10.8%.

With `O=C(Nc1ccccc1OC(=O)N1CCOCC1)N1CCOCC1`, the “hERG current change (%, negative = inhibition) at 1uM” value is given as -1.7%. Regarding `O=C(Cn1c(SCC(=O)NC2CCCC2)nnc1-c1ccncc1)Nc1ccc2c(c1)OCO2`, the “hERG current change (%, negative = inhibition) at 1uM” value came out at 15.4%. The result for `O=C(NCCC1=CCCCC1)NC1CCCCC1` reads 8.22%; that for `CNC(=O)/C=C/c1cccc(C(F)(F)F)c1`, 5.38%. For the compound `Clc1nc(NCc2ccco2)nc(N2CCCCC2)n1`, the “hERG current change (%, negative = inhibition) at 1uM” value stood at 23.6%.

Take `COc1ccc2c(c1)CC/C(=C\c1ccc(OC)c(Cn3cccn3)c1)C2=O`: the “hERG current change (%, negative = inhibition) at 1uM” value is recorded as 7.57%. Turning to `Cn1cccc1C(=O)OCC(=O)Nc1ccc2c(c1)OCO2`, the “hERG current change (%, negative = inhibition) at 1uM” value worked out at 12.3%. The result for `COc1ccc(C(CNC(=O)c2ccc(Cl)c(NC(=O)c3cccs3)c2)N2CCCC2)cc1` (stereo not drawn) reads -38.5%.

Consider `COc1ccc(NS(=O)(=O)c2ccc(NS(C)(=O)=O)cc2)cc1`, for which the “hERG current change (%, negative = inhibition) at 1uM” value is listed as 6.82%.

For the compound `Clc1ccc(C2CC(c3cccs3)n3ncnc3N2)cc1` (stereo not drawn), the “hERG current change (%, negative = inhibition) at 1uM” value came to 3.49%. The result for `COc1cc(/C=C2\C(=O)N(c3ccc(S(N)(=O)=O)cc3)N=C2C)ccc1OC(=O)c1ccco1` reads 9.27%; that for `Cc1ccc(NC(=O)COC(=O)COc2cccc3c2OC(C)(C)C3)cc1C`, 11.1%. The value for `CCOC(=O)C1CCCN(S(=O)(=O)c2ccc3c(c2)CC(C)N3C(=O)C2CC2)C1` (stereo not drawn) was 12%. The result for `O=C(Cc1ccccc1F)Nc1ccc(SC(F)F)cc1` reads 11.7%; that for `Cc1nc(-c2ccc(F)cc2)c(CC(=O)N(C)CC(=O)Nc2ccccc2C(F)(F)F)s1`, 6.37%; that for `CCC(C)NC(=O)c1cc2c(=O)[nH]c3ccc(C)cc3c2s1` (stereo not drawn), 13.9%. `N/C(=N\c1nc2ccccc2o1)NC(=O)c1ccccc1Br`: the “hERG current change (%, negative = inhibition) at 1uM” value is reported as 14.3%.

In the case of `COC(=O)c1cc(NC(=O)c2cccnc2)cc(C(=O)OC)c1`, the “hERG current change (%, negative = inhibition) at 1uM” value is reported as 11.2%.

Turning to `O=C(NNC(=O)c1cccc2ccccc12)c1ccc2c(c1)OCO2`, the “hERG current change (%, negative = inhibition) at 1uM” value is 14.4%. The value for `Cc1nc(-c2cccc3ccccc23)ccc1C(=O)O` was 10.5%; that for `CCCCCCCCCCCCN1[C@@H](CC(=O)OC)c2cc(F)cc(F)c2S1(=O)=O` was 14.4%; that for `O=C(C1CC(=O)N(c2ccccc2)C1)N1CCN(c2ccccc2)CC1` (stereo not drawn) was -15.9%. For `COc1ccc(C2=NO[C@@H]3[C@@H]4C[C@@H]([C@H]5C(=O)N(C)C(=O)[C@@H]45)[C@H]23)c(OC)c1`, the “hERG current change (%, negative = inhibition) at 1uM” value is recorded as 13.4%. The result for `CC(=O)N1CCc2cc(S(=O)(=O)NCCC3=CCCCC3)ccc21` reads 12.8%; that for `O=C(C1CCCN(Cc2ccccc2F)C1)N1CCCC1.O=C(O)C(=O)O` (stereo not drawn), 9.87%. The value for `S=C(NCc1ccco1)Nc1ccc(N2CCOCC2)cc1` was 11.9%; that for `CCOC(=O)c1cnc2ccc(C(=O)OC)cc2c1Nc1ccc2c(c1)OCCO2` was 10.5%. The value for `COc1ccc(-c2c[nH]c(=O)[nH]c2=O)cc1OC` was 10.6%. On to `CC(C)(C)c1ccc(O)c(O)c1`, for which the “hERG current change (%, negative = inhibition) at 1uM” value worked out at 14.1%. With `CCCC(=O)n1nc(NCc2ccc(OC)cc2)nc1NCc1ccc(OC)cc1`, the “hERG current change (%, negative = inhibition) at 1uM” value was determined as 11.3%. The result for `Cc1cc(C)nc(N2CCCC(C(=O)NCCc3ccccc3F)C2)n1` (stereo not drawn) reads 16.9%; that for `CC(CN(C)Cc1nc(Cc2cccc(C(F)(F)F)c2)no1)CN1CCCC1` (stereo not drawn), -28.4%.

For `CCOc1ccccc1CN1CCNC(=O)C1CC(=O)N(C)CCc1cnn(C)c1` (stereo not drawn), the “hERG current change (%, negative = inhibition) at 1uM” value was -7.03%.

Turning to `C=CCOc1nc2c(c(=O)n(C)c(=O)n2C)n1Cc1c(Cl)cccc1Cl`, the “hERG current change (%, negative = inhibition) at 1uM” value is 5.73%. The result for `Cn1nccc1C(=O)Nc1ccccc1C(=O)O` reads 9.76%; that for `CC(=O)c1ccc(NC(=O)COC(=O)c2nc(Cl)ccc2Cl)cc1`, 14.4%; that for `Cc1ccc(N(CC(=O)NC2CCCC2)C(=O)CCCC(=O)Nc2ccccn2)cc1C`, 13.5%.

Turning to `COc1ccc(OCC(=O)OCC(=O)NCc2ccco2)cc1`, the “hERG current change (%, negative = inhibition) at 1uM” value was -2.31%. As for `Cc1ccc(NC(=S)N2CCOCC2)cc1`, the “hERG current change (%, negative = inhibition) at 1uM” value is -6.23%. The value for `Cc1ccc(C(=O)N(CC(=O)NC2CCCC2)c2ccc3c(c2)OCCO3)s1` was 3.03%; that for `O=C(NCc1ccco1)C1OCCc2ccccc21` (stereo not drawn) was 10.4%; that for `Cc1cc(SCC(=O)N/N=C/c2ccc(O)cc2O)c(C)cc1Br` was 8.67%. With `COc1ccccc1OCC#CCN1CCOCC1.O=C(O)C(=O)O`, the “hERG current change (%, negative = inhibition) at 1uM” value is given as 11.5%. The value for `COc1ccc(C2CC(=O)N3C(=C2C#N)SCC3(O)c2ccccc2)cc1` (stereo not drawn) was -3.14%; that for `CCOC(=O)C1=C(c2ccccc2)NC(=O)NC1c1ccc(O)c(Cl)c1` (stereo not drawn) was 15.3%; that for `Cc1csc2nc(CNC(=O)c3ccco3)cn12` was 19.7%.

Consider `CN(C)c1ccc(CNC(=O)CN(C)S(=O)(=O)c2ccc3c(c2)c(=O)n(C)c(=O)n3C)cc1`, for which the “hERG current change (%, negative = inhibition) at 1uM” value is -3.06%. For `Cc1ccc(S(=O)(=O)NCCc2ccncc2)cc1`, the “hERG current change (%, negative = inhibition) at 1uM” value is given as 7.04%.

Take `CN1CCN(C(=S)NC(=O)c2cccc([N+](=O)[O-])c2)CC1`: the “hERG current change (%, negative = inhibition) at 1uM” value came out at 22.3%.

For `CN(C(=O)COc1cc(=O)n(C)c2ccccc12)c1cccc(Cl)c1`, the “hERG current change (%, negative = inhibition) at 1uM” value is -7.39%. The result for `O=C(O)c1ccccc1SCc1cn2ccccc2n1` reads 8.62%; that for `COc1ccc(-c2nc(N3CCCCCC3)sc2C(=O)c2ccccc2)cc1`, 5.07%. For the compound `COC(=O)c1sccc1NC(=O)c1ccoc1C`, the “hERG current change (%, negative = inhibition) at 1uM” value is reported as 12.6%. On to `N#Cc1ccccc1NC(=O)c1ccccc1OCC(=O)Nc1ccc2c(c1)oc1ccccc12`, for which the “hERG current change (%, negative = inhibition) at 1uM” value was 18.5%. Take `COc1ccc2cc(C(=O)Nc3ccc(F)cc3)sc(=O)c2c1OC`: the “hERG current change (%, negative = inhibition) at 1uM” value stood at 11.4%. For `CCC(=O)Nc1sc(C(=O)OC)c(C)c1C(=O)OC`, the “hERG current change (%, negative = inhibition) at 1uM” value stood at 14.3%. Take `Cc1ccc(C2=N/C(=C\c3ccc(F)cc3)C(=O)N2)cc1`: the “hERG current change (%, negative = inhibition) at 1uM” value was 0.14%. Regarding `Cc1ccc(NC(=O)C2=COCCO2)cc1S(=O)(=O)N1CCOCC1`, the “hERG current change (%, negative = inhibition) at 1uM” value is 13%. The value for `Cc1cc(C(=O)NNC(=S)Nc2cccc(C(F)(F)F)c2)nn1C` was 18.6%.

As for `O=C(c1ccncc1)N(Cc1ccccc1)Cc1nc2ccccc2c(=O)[nH]1`, the “hERG current change (%, negative = inhibition) at 1uM” value amounted to 17.6%. The value for `CCc1ccc(NC(=O)Nc2cccc(OC)c2)cc1` was 7.59%; that for `O=C(C[N+]1(CC#Cc2ccccc2)CCOCC1)c1ccccc1.[Br-]` was 19.2%; that for `CCN(CCCNC(=O)CN(C)S(=O)(=O)c1cccc2nsnc12)c1ccccc1` was 7.83%. The result for `CC1CCCC(C)N1C(=O)CSc1nnc(COc2ccccc2)n1-c1ccccc1` (stereo not drawn) reads 9.62%; that for `NC(=O)C1CCN(C(=O)CCc2nc3ccccc3c(=O)[nH]2)CC1`, 9.31%; that for `C#CC(C)(CC)NC(=O)Cn1nnc(-c2cccc(C(F)(F)F)c2)n1` (stereo not drawn), -1.45%.

As to `CCCCS(=O)(=O)N1CCCC(C(=O)NCCc2ccccc2)C1` (stereo not drawn), the “hERG current change (%, negative = inhibition) at 1uM” value turned out to be 14.2%. The value for `COc1ccc(C)cc1NC(=O)CSCc1ccccc1C` was 9.21%.

As for `CCOC(=O)N1CCN(C(=O)C2CCN(S(=O)(=O)c3cc(C)ccc3OC)CC2)CC1`, the “hERG current change (%, negative = inhibition) at 1uM” value was 7.79%. Regarding `CCCCN(C)C(=O)C1CCN(Cc2cccc(OCc3ccccc3)c2)CC1.O=C(O)C(=O)O`, the “hERG current change (%, negative = inhibition) at 1uM” value was -35.6%.

For `CCC(C(=O)OCCOCCN(CC)CC)c1ccccc1` (stereo not drawn), the “hERG current change (%, negative = inhibition) at 1uM” value turned out to be 10.3%. The result for `O=C(NCc1cccnc1)C(=O)N/N=C/c1ccc([N+](=O)[O-])cc1` reads 17%; that for `CCCc1cc2c(=O)c(-c3ccccn3)coc2cc1OC`, 10.4%. The value for `CCn1c(SCC(=O)Nc2ccc(NC(C)=O)cc2)nc2c([nH]c3ccccc32)c1=O` was 16.8%.
